Reference: publication PMC4336329 (PLoS ONE, 2015)
Screen size: about 310,000 compounds; about 2,200 (0.71%) showed an effect of 50% or more. Effects have a minus sign here. The list shows a part of the results.

Each compound was assayed against human ether-à-go-go-related gene (hERG) potassium channel (human, UniProt Q12809) (assay: primary screen, population patch clamp on CHO cells stably expressing hERG).
Sequence of human ether-à-go-go-related gene (hERG) potassium channel (Q12809 whole entry, looked up): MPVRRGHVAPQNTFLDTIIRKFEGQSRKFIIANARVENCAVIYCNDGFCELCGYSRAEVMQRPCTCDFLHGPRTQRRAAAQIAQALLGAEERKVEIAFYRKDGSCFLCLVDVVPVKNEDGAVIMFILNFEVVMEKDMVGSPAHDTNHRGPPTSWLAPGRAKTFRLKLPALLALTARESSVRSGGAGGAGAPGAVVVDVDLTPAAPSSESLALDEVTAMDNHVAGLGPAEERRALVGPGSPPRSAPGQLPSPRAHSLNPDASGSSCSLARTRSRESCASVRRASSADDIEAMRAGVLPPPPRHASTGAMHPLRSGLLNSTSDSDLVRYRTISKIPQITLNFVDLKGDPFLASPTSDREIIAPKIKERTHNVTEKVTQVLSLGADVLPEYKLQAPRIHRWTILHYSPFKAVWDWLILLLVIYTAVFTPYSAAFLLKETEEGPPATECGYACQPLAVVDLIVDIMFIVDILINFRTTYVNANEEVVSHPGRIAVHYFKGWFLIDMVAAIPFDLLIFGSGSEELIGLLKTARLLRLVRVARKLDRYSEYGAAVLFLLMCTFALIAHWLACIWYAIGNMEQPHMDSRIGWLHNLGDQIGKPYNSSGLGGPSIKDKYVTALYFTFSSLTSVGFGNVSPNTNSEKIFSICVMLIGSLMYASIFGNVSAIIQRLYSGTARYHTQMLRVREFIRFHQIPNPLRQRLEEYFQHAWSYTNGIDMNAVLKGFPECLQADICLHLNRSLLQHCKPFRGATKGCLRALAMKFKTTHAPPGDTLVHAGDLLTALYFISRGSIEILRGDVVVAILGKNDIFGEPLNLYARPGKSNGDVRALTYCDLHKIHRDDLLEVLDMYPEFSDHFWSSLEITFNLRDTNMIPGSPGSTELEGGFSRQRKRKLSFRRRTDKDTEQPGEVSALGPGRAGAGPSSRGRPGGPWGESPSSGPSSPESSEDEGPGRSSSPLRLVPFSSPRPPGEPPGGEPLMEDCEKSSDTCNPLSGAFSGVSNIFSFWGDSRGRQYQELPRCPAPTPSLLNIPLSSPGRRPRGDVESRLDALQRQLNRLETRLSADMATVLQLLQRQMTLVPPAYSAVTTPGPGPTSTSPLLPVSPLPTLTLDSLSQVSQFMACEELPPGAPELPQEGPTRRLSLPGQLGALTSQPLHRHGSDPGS

Compared with `CCOCCc1c(O)nc(SCC(=O)NCc2ccco2)[nH]c1=O`, `Cc1sc2nc(CSCC(=O)N(C)CC(=O)Nc3ccc(F)cc3)[nH]c(=O)c2c1C` is lower in “hERG current change (%, negative = inhibition) at 1uM” value: 13.6% for the first, 11.3% for the second.

Compared with `CCOC(=O)N1CCN(C(=O)CCl)CC1`, `O=C(CCS(=O)(=O)c1cc(Br)cc2c1N(C(=O)C1CC1)CC2)N1CCN(c2ccccn2)CC1` is lower in “hERG current change (%, negative = inhibition) at 1uM” value: 14.1% for the first, 6.22% for the second.

Going from `S=C(Nc1ccc2nccnc2c1)N1CCOCC1` to `COc1ccc(NC2CCCN(C(=O)CCc3cccc(F)c3)C2)cc1` (centres unmarked), the “hERG current change (%, negative = inhibition) at 1uM” value rises from 5.06% to 13.6%.

Compared with `COc1ccc(NC(=O)NCc2ccccn2)c(OC)c1`, `COc1ccc2nc(NC(=O)CSC3=NCCS3)sc2c1` is higher in “hERG current change (%, negative = inhibition) at 1uM” value: 1.77% for the first, 8.05% for the second.

Going from `O=C(N/C(=C/c1ccco1)C(=O)N1CCCCCC1)c1ccccc1` to `O=C(NC1CCCN(Cc2ccccc2F)C1)c1cccc(N2CCCC2=O)c1` (centres unmarked), the “hERG current change (%, negative = inhibition) at 1uM” value rises from 7.84% to 8.64%.

Compared with `CSc1ncccc1C(=O)OCC(=O)NC1CCC(C)CC1` (centres unmarked), `CCOc1ccc(N2C(=O)CC(NC3CCN(C(=O)c4cccc(Cl)c4)CC3)C2=O)cc1` (centres unmarked) is higher in “hERG current change (%, negative = inhibition) at 1uM” value: 3.55% for the first, 7.34% for the second.

Going from `CCOC(=O)c1cc2c(n(-c3ccc(Cl)cc3)c1=O)CCCC2=O` to `O=C(COc1ccc(Cl)cc1)NCCN1CCCCC1`, the “hERG current change (%, negative = inhibition) at 1uM” value falls from 10.9% to -1.49%.

Going from `CC(=O)Nc1ccc(N/C(C)=C/C(=O)c2cccnc2)cc1` to `Cc1cccc(NC(=O)c2ccccc2NC(=O)CCC(=O)O)c1`, the “hERG current change (%, negative = inhibition) at 1uM” value falls from 2.32% to -0.152%.

First: O=C(NCCc1ccccc1)C1CCCN1S(=O)(=O)c1cccc2nsnc12 (centres unmarked)
Second: COc1ccc(S(=O)(=O)NCC2CCCN(Cc3cccc(C(C)=O)c3)C2)cc1 (centres unmarked)
The “hERG current change (%, negative = inhibition) at 1uM” value of the first is higher: 14.5% for the first, 6.25% for the second.

First: COc1ccc(S(=O)(=O)N2CCCC(C(=O)N3CCN(c4ccccc4)CC3)C2)cc1Cl (centres unmarked)
Second: CCC1Nc2ncnc(N3CCN(c4ccccc4)CC3)c2N(Cc2ccc(OC)cc2)C1=O.O=C(O)C(F)(F)F (centres unmarked)
The “hERG current change (%, negative = inhibition) at 1uM” value of the first is lower: -29.1% for the first, 9.63% for the second.

Compared with `COc1ccc(CCNc2cc(-c3ccccc3)nc3ncnn23)cc1`, `COCCCNC(=S)NNC(=O)c1cc(-c2cccnc2)nc2ccccc12` is lower in “hERG current change (%, negative = inhibition) at 1uM” value: 4.23% for the first, 0.755% for the second.

Going from `CC1=CC(=O)N(c2ccc(C)cc2)C1c1ccc(Cl)cc1` (centres unmarked) to `Cc1ccc(S(=O)(=O)N2[C@@H](c3ccccc3)C(C(=O)O)=CC[C@H]2c2ccc(Cl)cc2)cc1`, the “hERG current change (%, negative = inhibition) at 1uM” value rises from 9.79% to 14.7%.

Going from `Cc1ccc(N(CC(=O)N/N=C/c2ccc(OC3CSC3)cc2)S(=O)(=O)c2ccccc2)cc1` to `COc1ccc(N(Cc2cc3cccc(C)c3[nH]c2=O)S(=O)(=O)c2ccc(OC)cc2)cc1`, the “hERG current change (%, negative = inhibition) at 1uM” value rises from 0.363% to 9.73%.

Compared with `Cc1ccc(-c2c[n+](CC(=O)c3cccs3)c3n2CCC3)cc1.[Br-]`, `Cc1ccc(C(=O)CC(=O)c2ccc(C(C)(C)C)cc2)cc1` is higher in “hERG current change (%, negative = inhibition) at 1uM” value: 9.96% for the first, 11.1% for the second.

Compared with `Cc1ccc(CN2CCN(CCCc3ccccc3)CC2CCO)cc1` (centres unmarked), `O=C1CCN(CCCc2ccccc2)CCN1[C@H](CO)Cc1ccccc1` is higher in “hERG current change (%, negative = inhibition) at 1uM” value: -68.7% for the first, -12% for the second.

First: CCC(=O)Nc1cccc(C2=NOC3(C2)C[C@@H](C(N)=O)N(C(=O)c2ccc(OC)cc2)C3)c1 (some centres unmarked)
Second: CC(=O)Nc1ccc(N(CC(=O)NCC2CCCO2)C(=O)CCC(=O)Nc2cc(C)on2)cc1 (centres unmarked)
The “hERG current change (%, negative = inhibition) at 1uM” value of the first is lower: 6.65% for the first, 9.05% for the second.

Going from `CC(C)(C)c1nnc(N/N=C/c2ccccc2O)n(N)c1=O` to `Cn1c(=O)c2[nH]c(N3CCN(c4cccc(O)c4)CC3)nc2n(C)c1=O`, the “hERG current change (%, negative = inhibition) at 1uM” value rises from 4.42% to 16.9%.

Going from `COC(=O)C12CCC3(SCCS3)C(C(=O)OC)(CCC13SCCS3)C2` to `CC1CCCCN1C(=O)c1ccc(OC2CCN(S(=O)(=O)N(C)C)CC2)cc1` (centres unmarked), the “hERG current change (%, negative = inhibition) at 1uM” value falls from 0.0895% to -6.39%.

First: Cc1cc(C)n(-c2nc3ccccc3nc2N2CCCCCC2)n1
Second: CCN1C(=O)C2(C(C#N)=C(N)Oc3n[nH]c(COC)c32)c2ccccc21 (centres unmarked)
The “hERG current change (%, negative = inhibition) at 1uM” value of the first is higher: 14.4% for the first, 3.24% for the second.

First: COc1cc(C2NC(=O)NC(C)=C2C(=O)OC(C)C)ccc1OC(=O)c1ccco1 (centres unmarked)
Second: CC(Oc1ccc2c3c(c(=O)oc2c1)CCCC3)C(=O)NCc1ccncc1 (centres unmarked)
The “hERG current change (%, negative = inhibition) at 1uM” value of the first is lower: 12.7% for the first, 16.3% for the second.

Going from `CCCCNC(=O)OCCNC(=O)NC` to `O=C(O)CC(CNS(=O)(=O)c1ccccc1)c1ccccc1` (centres unmarked), the “hERG current change (%, negative = inhibition) at 1uM” value rises from 10.7% to 16.9%.

Compared with `COc1cccc(C(=O)Nc2c(F)c(F)c(F)c(F)c2F)c1`, `CN=C1SC(CC(=O)Nc2cccc(C(F)(F)F)c2)C(=O)N1C` (centres unmarked) is lower in “hERG current change (%, negative = inhibition) at 1uM” value: 7.88% for the first, -0.689% for the second.
